Here are results for 172 sequences from paper PMC4242493.

Some of the results follow. The list includes weakly bound sequences.

This assay addresses MaxL homodimer (UniProt P61244). The assay can be described thus: universal protein-binding microarray (PBM). As to conditions: PBS-based mixture, 10 nM His-tagged protein dimer, 2% milk, 200 ng/uL BSA, 50 ng/uL salmon testes DNA, 0.02% TX-100; detection with Alexa 488 anti-His …; high values mean tight binding; most listed sequences are background and not binding sites; double strand, one strand shown.
Chain of UniProt P61244 (P61244 whole entry): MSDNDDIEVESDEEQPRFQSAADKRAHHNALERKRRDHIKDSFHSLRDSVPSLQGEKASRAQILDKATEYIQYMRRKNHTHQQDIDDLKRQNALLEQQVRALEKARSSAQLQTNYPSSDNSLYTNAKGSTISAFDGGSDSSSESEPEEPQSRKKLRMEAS
For the sequence CGTAGTGA, the binding signal (normalized occupancy) amounted to 0.0792. To AATGCGAC belongs 0.0782; to CTCGGACA, 0.0765. To AGGCAGGG belongs 0.0722; to AGGGTGTC, 0.0762; to CCTTAATA, 0.074. Then ACTTACAA, with 0.0743; and AATTAGAA, with 0.0776; and AACGACTT, with 0.0709.

As to ATCGGAAG, the binding signal (normalized occupancy) was determined as 0.0744. To TATGATGA belongs 0.0814. As for CTTCTTCC, the binding signal (normalized occupancy) came out at 0.0714. Then GTTTTAGA, with 0.072; and CACCGAGG, with 0.0722. Then CCGTGCAG, with 0.0778; and ACAAACGG, with 0.0723.

As for ATAGTGGA, the binding signal (normalized occupancy) stood at 0.0774. To TCCGAAAA belongs 0.0774. Then ACGGTAAG, with 0.0742; and AAATCACC, with 0.081; and CTTCCCGA, with 0.0703. As to GTTCTGCA, the binding signal (normalized occupancy) was determined as 0.0806. To CCGATACG belongs 0.075; to AGAAAGTC, 0.0723. Turning to CCGAATTC, the binding signal (normalized occupancy) is 0.0698. Then AGCTCCTC, with 0.0721; and CCTTCTTC, with 0.0732; and AAGTCTAG, with 0.0703. To AAGTAGTC belongs 0.0719; to AGAGTCCT, 0.0696. Then GATCATCC, with 0.0784. GGCCCCAC: the binding signal (normalized occupancy) was determined as 0.0779. To AGGAAACT belongs 0.0669. Then TATGGTCA, with 0.0805. To GCTAGTAC belongs 0.0709. Consider TAGTGTAA, for which the binding signal (normalized occupancy) was 0.0707. For AAGTGGGT, the binding signal (normalized occupancy) was found to be 0.0752. To ATCTGGAA belongs 0.074; to ATGGATGC, 0.082; to GGCAGCCC, 0.0701.

As to CTCTAGAC, the binding signal (normalized occupancy) stood at 0.0718.

Turning to CCACGCCC, the binding signal (normalized occupancy) turned out to be 0.0948. CCCCTTTA: the binding signal (normalized occupancy) came out at 0.0738. To AAGTCTAA belongs 0.0755; to CACGCGTC, 0.119; to ACAAAGCA, 0.069. To CCTGATAA belongs 0.0778; to CAGATCAC, 0.0735; to CCTATTCC, 0.0779. To CGGTTACC belongs 0.0722; to AAAATATA, 0.0799. Regarding CACAAGGC, the binding signal (normalized occupancy) came to 0.0814.

With GTTCCTCA, the binding signal (normalized occupancy) worked out at 0.0726. Then CAGATTAG, with 0.0772. To CGGACCTC belongs 0.0706; to CAGCCTAG, 0.0649; to CATTGCAA, 0.0755. Then ATGGTATA, with 0.0853. Take ACCTATAA: the binding signal (normalized occupancy) came out at 0.0797. Then CTGGAAAC, with 0.0752. To CCTGGGGA belongs 0.0698.

With CCCTTCGA, the binding signal (normalized occupancy) came to 0.073. To CATGGCCA belongs 0.0803. Then ACGCCTAG, with 0.0726; and CTTGAGTC, with 0.0726; and AAATGGAG, with 0.0774. Then CCCATCCA, with 0.0805; and ATCCTAAG, with 0.0734. For AAAGACAG, the binding signal (normalized occupancy) was 0.0731. To AGACGTTC belongs 0.0744. To ATGGTCGA belongs 0.0786. Then GGCCATGA, with 0.0847; and CACTTATG, with 0.0845; and CAGGATCG, with 0.0765. In the case of CGAATTAC, the binding signal (normalized occupancy) is 0.0717. Then GCTTACTA, with 0.072; and CTTGTCGC, with 0.0664.

Consider GTCATTGA, for which the binding signal (normalized occupancy) turned out to be 0.0813. Turning to ACCAAAGA, the binding signal (normalized occupancy) was 0.0752. To CGGGCGGA belongs 0.0678; to ATGCCTTC, 0.0784; to TACGAACA, 0.0754. Take CCACCATC: the binding signal (normalized occupancy) was 0.0768.

With ATGATGCG, the binding signal (normalized occupancy) is 0.0869.

For the sequence CCCTGGAA, the binding signal (normalized occupancy) is 0.0745. Regarding GTAAAGAC, the binding signal (normalized occupancy) turned out to be 0.0723. Take AGGACACG: the binding signal (normalized occupancy) stood at 0.0852. On to GCGTGCCA, for which the binding signal (normalized occupancy) stood at 0.09. To AACTCTGC belongs 0.0676; to GGTGTTAA, 0.077; to AGAGTGTA, 0.0771. To ACCCGGCC belongs 0.0668; to ACGATTAA, 0.0772; to CCCCCGCA, 0.0822. Then ACGAGTGC, with 0.0801; and CAGGGGAG, with 0.0786. With CCGCGCAG, the binding signal (normalized occupancy) was 0.0685. Consider AATAGTAT, for which the binding signal (normalized occupancy) is 0.0751.

ACGGATCT: the binding signal (normalized occupancy) came to 0.0718. Then ACTTTTCG, with 0.0723; and CCTAGCCC, with 0.075; and CGAATTCA, with 0.0686. Then AGCCACCA, with 0.0809. To CCTGGAGC belongs 0.0701. For the sequence ATCACTTG, the binding signal (normalized occupancy) stood at 0.0778. To CCCACCTA belongs 0.0786. Then TGTAGTAA, with 0.0863.

For GTTTGCGA, the binding signal (normalized occupancy) is 0.0718. To AGCTTTCG belongs 0.0672; to TAGGAGAA, 0.0739; to CAGGAGGG, 0.0751. Then GAGCTACA, with 0.0796; and CCATACTC, with 0.0805. To GGTTGACA belongs 0.0758; to CTATTCTC, 0.0763; to CCATGGCA, 0.0891. Regarding ACGATGCT, the binding signal (normalized occupancy) is 0.0793. To GCACATAC belongs 0.0803; to TACTTTAA, 0.0765; to CAATGCAG, 0.0809.

Consider AATCCCGT, for which the binding signal (normalized occupancy) is 0.081.

In the case of CCCCGAAG, the binding signal (normalized occupancy) was determined as 0.0731. To AGCCGTCA belongs 0.0708; to CGAACGAC, 0.0697. Then CTTTCTGC, with 0.0723. To AATTGCCG belongs 0.0718; to CCGTTACA, 0.0742; to CACGTCGG, 0.0826.

AATCAACA: the binding signal (normalized occupancy) stood at 0.0833. Consider AACGCGAC, for which the binding signal (normalized occupancy) was determined as 0.0746.

With GGTTACGA, the binding signal (normalized occupancy) came to 0.0721.

As to GAAGTTTA, the binding signal (normalized occupancy) amounted to 0.0695. To ACCCGGGA belongs 0.07. On to ATGATTAG, for which the binding signal (normalized occupancy) worked out at 0.0832. To ACAAATGC belongs 0.0787. As for ACTTCTTA, the binding signal (normalized occupancy) was determined as 0.0765. To CAATAGAG belongs 0.0767; to AGGGTTTA, 0.0765. ATTTAGTA: the binding signal (normalized occupancy) amounted to 0.0699.

On to CCAAAAAA, for which the binding signal (normalized occupancy) was determined as 0.0749. Then TGGAAACA, with 0.081. Then ACCTCGGC, with 0.0711. Then ACCTCGGG, with 0.0783; and CAGTTCAA, with 0.0741; and GGTGCAAA, with 0.0755. Take AATGGTGA: the binding signal (normalized occupancy) came out at 0.0751. To CGGATGCC belongs 0.0725; to GCCTTAGA, 0.0722; to TCTGACAA, 0.0733. Then AAATTCGT, with 0.0752. To CACTATCC belongs 0.0788; to CCAACCCG, 0.0709. With ATCGTCAC, the binding signal (normalized occupancy) came to 0.0829. To AGGATACC belongs 0.0753; to AGGAGTGA, 0.0707; to GAAAAATA, 0.0777. As to ACGTCTTC, the binding signal (normalized occupancy) worked out at 0.0758.

For AAAACAAA, the binding signal (normalized occupancy) was determined as 0.0701. To CAGCCCAC belongs 0.0757; to CTATATTC, 0.0798; to AAGTACAG, 0.0787. Then CAACGCAC, with 0.0855; and AAACCTAT, with 0.0761.

As to AGCTGTTA, the binding signal (normalized occupancy) came out at 0.0759. Then AATCGGCT, with 0.0686. Regarding AGATTCAA, the binding signal (normalized occupancy) came out at 0.0757. Then CAGGCTCA, with 0.0741; and CTTGCTAA, with 0.0734; and ATAGAGAG, with 0.076.

Regarding GATGGAAA, the binding signal (normalized occupancy) was found to be 0.0794.

For ATGGGTGA, the binding signal (normalized occupancy) is 0.0866. On to AACCCTAG, for which the binding signal (normalized occupancy) was found to be 0.078.
